# Test results as given in article PMC4336329 (PLoS ONE, 2015).
# Hit rate of the full screen: of about 310,000 compounds, about 14,000 (4.5%) showed an effect of 50% or more. Effects have a minus sign here. Some of the results follow.
# Target: human ether-à-go-go-related gene (hERG) potassium channel (human, UniProt Q12809)
# Test: primary screen, population patch clamp on CHO cells stably expressing hERG
# 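Note: peak tail current of the secondary pulse compared with the same well before compound.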
# human ether-à-go-go-related gene (hERG) potassium channel, sequence (Q12809 whole entry, looked up): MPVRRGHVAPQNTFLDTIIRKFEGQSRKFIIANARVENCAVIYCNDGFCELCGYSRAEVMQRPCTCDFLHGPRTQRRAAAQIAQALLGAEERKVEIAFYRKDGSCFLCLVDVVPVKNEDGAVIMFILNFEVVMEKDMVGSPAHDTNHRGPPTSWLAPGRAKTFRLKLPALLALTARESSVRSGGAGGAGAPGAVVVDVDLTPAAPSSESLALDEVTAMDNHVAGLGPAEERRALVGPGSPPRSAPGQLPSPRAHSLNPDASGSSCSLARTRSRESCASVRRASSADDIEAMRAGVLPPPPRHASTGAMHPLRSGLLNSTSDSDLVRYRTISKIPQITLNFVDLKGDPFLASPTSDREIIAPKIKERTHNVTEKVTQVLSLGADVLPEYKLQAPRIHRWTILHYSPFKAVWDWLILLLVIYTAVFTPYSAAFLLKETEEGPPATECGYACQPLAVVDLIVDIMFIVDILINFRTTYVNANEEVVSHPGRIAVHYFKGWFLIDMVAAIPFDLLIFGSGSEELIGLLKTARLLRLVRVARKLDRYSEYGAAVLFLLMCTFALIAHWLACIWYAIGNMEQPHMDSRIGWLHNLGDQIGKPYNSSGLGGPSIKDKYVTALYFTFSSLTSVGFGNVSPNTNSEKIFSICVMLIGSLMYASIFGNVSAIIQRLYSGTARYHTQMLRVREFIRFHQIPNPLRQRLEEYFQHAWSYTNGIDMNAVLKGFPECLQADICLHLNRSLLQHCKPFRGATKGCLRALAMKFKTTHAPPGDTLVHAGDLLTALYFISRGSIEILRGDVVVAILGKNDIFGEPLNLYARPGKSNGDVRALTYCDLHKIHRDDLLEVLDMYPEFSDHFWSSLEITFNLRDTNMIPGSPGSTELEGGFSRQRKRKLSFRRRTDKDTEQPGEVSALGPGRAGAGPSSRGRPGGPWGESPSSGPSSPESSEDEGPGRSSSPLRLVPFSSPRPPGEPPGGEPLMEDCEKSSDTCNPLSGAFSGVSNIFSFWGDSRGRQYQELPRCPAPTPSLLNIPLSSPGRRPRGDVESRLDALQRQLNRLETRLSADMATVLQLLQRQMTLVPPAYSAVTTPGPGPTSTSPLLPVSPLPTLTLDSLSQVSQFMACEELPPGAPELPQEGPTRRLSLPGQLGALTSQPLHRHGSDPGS
row,SMILES,"hERG current change (%, negative = inhibition) at 10uM"
1,C=CCN1C(=O)c2ccc(C(=O)N(C)CC(=O)Nc3ccccc3Br)cc2C1=O,4.17%
2,CC(=O)Oc1ccc(-c2csc(Nc3cccnc3)n2)cc1,-9.85%
3,CN(C)S(=O)(=O)c1ccc2c(c1)nc(CCC(=O)NCC1CCCCC1)n2C,-14.6%
4,CCC1(CC)NC(=S)N(Nc2ccccc2)C1=O,9.67%
5,Cc1ccc(S(=O)(=O)Nc2cc(=O)[nH]c(SCC(=O)Nc3cccc(C)c3)n2)cc1,1.89%
6,Cc1ccc(NC(=O)c2cc3ccccc3cc2O)cc1,10.6%
7,O=C(CCn1c(=S)oc2ccccc21)NC1CCCCCC1,7.94%
8,CCN(C(=O)CSc1nnnn1-c1ccccc1OC)C1CCS(=O)(=O)C1 (centres unmarked),21.2%
9,COc1ccc(N2CCN(C(=O)CS(=O)Cc3nc(-c4ccc(OC)c(OC)c4)oc3C)CC2)cc1 (centres unmarked),2.58%
10,O=C(O)CCCCNCc1ccccc1,12.4%
11,Cc1nc2cc(OCc3cc(C(=O)NC(C)c4cnn(C)c4)no3)ccc2s1 (centres unmarked),9.18%
12,O=C(CSc1nnc(-c2ccccn2)o1)Nc1ccccc1C(F)(F)F,20.7%
13,Cc1sc2nc(SCC(=O)NCc3ccco3)n(CCc3ccccc3)c(=O)c2c1C,9.67%
14,CCOc1cc(/C=C2\C(=N)N3N=C(C)SC3=NC2=O)ccc1OCCOc1cccc(OC)c1,3.92%
15,[N-]=[N+]=NC1CC(CO)OC1n1ccc(=O)[nH]c1=O (centres unmarked),2.45%
16,COc1cccc(NC(=O)CCC2CCN(C(=O)c3cccc(NC(C)=O)c3)CC2)c1,-28.4%
17,COc1ccc(-n2c(=O)[nH]cc(C(=O)N3CCCc4ccccc43)c2=O)cc1,-1.98%
18,O=C(Nc1ccccc1)c1ccc(=O)[nH]n1,17.3%
19,COc1ccc(NC(=O)CN(C)C(=O)Cc2ccc(-c3ccccc3)cc2)cc1,6.88%
20,C=CCOC(=O)C1=C(C)NC(=O)NC1c1ccc(OC(=O)c2ccco2)c(OC)c1 (centres unmarked),3.15%
21,Cc1cccc(C)c1OCC(O)Cn1c2ccccc2c2ccccc21 (centres unmarked),6.83%
22,COc1cc(OC)c(OC)cc1/C=C1\CC(C)C/C(=C\c2cc(OC)c(OC)cc2OC)C1=O (centres unmarked),7.36%

row,SMILES,"hERG current change (%, negative = inhibition) at 10uM"
1,CC(C)CN(C(=O)CN(C)C(=O)Cc1ccccc1Cl)c1c(N)n(CC(C)C)c(=O)[nH]c1=O,20.7%
2,COc1cccc(CC(=O)OCC(=O)NC(=O)c2ccc(OC(F)F)cc2)c1,-16.7%
3,CCOC(=O)c1ccc(NC(=O)c2ccc(NS(C)(=O)=O)cc2)cc1,-8.5%
4,Cc1c(Cl)cccc1NC(=O)Nc1ccc(C(=O)N2CCCC2)cc1,-0.694%
5,Cc1ccc2nc(SCC(=O)NCc3ccco3)nc(=O)n2c1,8.08%
6,COC(=O)N/N=C\c1c(C)nn(-c2ccccc2)c1Cl,-12.7%
7,CNC(=S)N1N=C(c2ccccc2)CC1c1ccccc1Cl (centres unmarked),9.32%
8,COc1ccccc1NC(=O)c1cnc(SC)nc1,19.2%
9,COC(=O)C1=C(C)Nc2[nH]c(=S)[nH]c(=O)c2C1c1ccc(O)cc1 (centres unmarked),8.44%
10,COc1cccc(CNC(=O)COc2cc3c(c4oc(=O)cc(C)c24)CCC(C)(C)O3)c1,-3.43%
11,C(=N\c1nc2ccccc2n1Cc1ccccc1)/c1cccs1,-6.17%
12,O=C(NCc1ccco1)c1sc(=S)n2c1[nH]c(=O)c1ccccc12,-16.8%
13,CCOC(=O)/C=C/c1ccc2c(c1)S(=O)(=O)N(c1cccc(OC)c1)[C@H]2CC(=O)OCC,-0.723%
14,Cc1ccc(NC2CCCN(C(=O)CCCN3CCCCC3=O)C2)cc1C (centres unmarked),-2.7%
15,O=C(O)C1=C[C@@H](c2ccc(Br)cc2)C[C@@H](OCc2ccc(CO)cc2)O1,18.2%
16,COCCn1c(C)cc(C(=O)CSc2nc3ccccc3s2)c1C,8.05%
17,Fc1ccc(NC(=S)N2CCOCC2)cc1Cl,17.7%
18,CC(C(=O)N(C)C)N(C#N)c1nc(N(C)C)nc(N(C)C)n1 (centres unmarked),-8.07%
19,Cc1cc(NC(=O)CSc2nc3ccccc3c(=O)n2CCCC(=O)NCc2ccccc2)n[nH]1,-8.72%
20,CC(C)CN(C(=O)c1ccc(S(=O)(=O)N2CCOCC2)cc1)C1CCS(=O)(=O)C1 (centres unmarked),4.93%
21,CCOC(=O)N1CCN(Cc2nc(-c3ccc(OC)cc3)no2)CC1,-4.74%
22,COC(=O)C1CCN(C(=O)COC(=O)c2ccc3[nH]c4c(c3c2)CCCC4)CC1,8.9%

row,SMILES,"hERG current change (%, negative = inhibition) at 10uM"
1,Cc1cccc(NC(=S)NNC(=O)CC(C)O)c1C (centres unmarked),14.5%
2,COc1cc(/C=C(\C#N)C(=O)Nc2cccc(C(=O)O)c2)ccc1OCc1ccc(F)cc1,22.6%
3,Cc1csc(=O)n1CCC(=O)OCC(=O)Nc1cc([N+](=O)[O-])ccc1Cl,-46.1%
4,COc1cc(-c2nnc3n2N=C(c2ccccc2)CS3)cc(OC)c1OC,-8.51%
5,COc1cccc(-n2nc(C(N)=O)c(O)cc2=O)c1,39.9%
6,Nc1ccc(Nc2ccc([N+](=O)[O-])cc2[N+](=O)[O-])cc1,-11.3%
7,Cc1cc([N+](=O)[O-])ccc1-c1ccc(C2Nc3ccccc3C(=O)N2O)o1 (centres unmarked),-24.1%
8,CCn1cc([N+](=O)[O-])c(C(=O)N2N=C(c3ccc(O)c(OC)c3)CC2c2ccccc2O)n1 (centres unmarked),16.4%
9,Cc1cccc(NC(=S)NCC23C=CC(O2)C2C(=O)N(c4ccc(Cl)cc4)C(=O)C23)c1 (centres unmarked),4.35%
10,Cn1nc(C(=O)NCCc2ccc(S(N)(=O)=O)cc2)c2ccccc2c1=O,1.47%
11,Cc1ccc(NC(=O)CSc2nnc(Cc3cccn3C)n2-c2ccc(F)cc2)cc1,-31.1%
12,Cc1nc(SCC(=O)NC2CCCC2)[nH]c(=O)c1Cc1ccccc1,7.93%
13,COC(=O)c1ccccc1OC(=O)c1cc[n+]([O-])cc1,9.67%
14,Cc1ccccc1CN1CCN(Cc2ccc3cccc(F)c3n2)CC1CCO (centres unmarked),-32.7%
15,CCN(CC)c1cccc(OC(=O)c2cccnc2Cl)c1,-7.41%
16,O=C1NC2(CCCCC2)C(=O)N1CCS(=O)(=O)Oc1ccc(Br)cc1,-2.58%
17,CC(=O)N(Cc1ccccc1)c1ccccc1C(=O)O,13.1%
18,CCN(CC)C(=O)c1ccc(NC(=O)COc2ccc([N+](=O)[O-])cc2Cl)cc1,-25.2%
19,COc1ccc(-c2csc(NC(=O)c3cc(C)on3)c2C#N)cc1OC,8.72%
20,COc1ccccc1NC(=O)c1ccc(NC(=O)CSc2ncccn2)cc1,-10.6%
21,O=C1CN(C(=O)CN2CCCC2)C(c2ccccc2)c2cc(Br)ccc2N1 (centres unmarked),-46.6%
22,CC(=O)OCCNC(=O)Cn1cnc2c1c(=O)n(C)c(=O)n2C,4.82%

row,SMILES,"hERG current change (%, negative = inhibition) at 10uM"
1,O=C(CCCCCNC(=O)c1ccccc1)N/N=C/c1ccccc1,-9.98%
2,O=C(Nc1nnc(CCS(=O)(=O)c2ccc3ccccc3c2)s1)c1ccc([N+](=O)[O-])cc1,13.6%
3,CCn1c(C)cc(/C=C2/NC(=O)N(Cc3ccccc3F)C2=O)c1C,19.8%
4,COc1ccc(CCNC(=O)C2CCN(S(=O)(=O)c3ccc(Cl)cc3)CC2)cc1OC,-10.5%
5,CCCc1nnc(NC(=O)C2CCN(C(=O)c3ccco3)CC2)s1,3.58%
6,O=C(NC1CC2CCCC(C1)N2S(=O)(=O)c1ccccc1)C1CCCCC1 (centres unmarked),-2.61%
7,C=CCNC(=S)/N=c1/ccccn1Cc1ccccc1,13.1%
8,Cc1ccc2nc(-c3ccc(SCC(=O)N4CCc5ccccc54)nc3)[nH]c2c1,0.771%
9,Cn1c(=O)cc(OCC(=O)N2CCN(c3cccc(C(F)(F)F)c3)CC2)c2ccccc21,-4.91%
10,COc1ccc(CN(CC(=O)NCCc2ccccc2)C(=O)CCC(=O)Nc2cc(C)ccn2)cc1,-24.6%
11,Cc1ccc(SCC(=O)n2nc(C)cc2C)cc1,16%
12,COc1cccc(CNS(=O)(=O)c2ccc(-n3cnnn3)c(C)c2)c1,-8.54%
13,COCCN(C(=S)Nc1ccccc1C)C(C)c1cccs1 (centres unmarked),-3.22%
14,O=C(NNC(=O)C(O)c1ccccc1)NC1CCCCC1 (centres unmarked),13.9%
15,Cc1ccsc1/C=N/Nc1nc(Cl)c(Cl)cc1Cl,8.03%
16,C[C@H]1CN(Cc2ccccc2)C(=O)[C@@H]1CC(=O)NCc1ccccc1,1.31%
17,COc1ccc(OC)c(NS(=O)(=O)c2ccc(Br)s2)c1,-12.4%
18,Cc1ccc(NC(=O)CN2CCC(C(N)=O)CC2)cc1[N+](=O)[O-],-11.1%
19,COc1ccc(CCc2cc(OC)cc(=O)o2)cc1,-0.477%
20,CCN(CC)c1ccc(NC(=O)CN2CCN(c3nc(C)cc(C)n3)CC2)cc1,-21.7%
